# Over roughly 81,000 sequences, “one-hybrid fitness for binding parS DNA” has its median near -0.17; the highest 2% begin near 0.51. This is one part of the list.
# B1: Caulobacter ParB omega fusion; a variant is named by its letters at X, in order, B8GW30 (parent)
# chain: MESVVVGEPGMSEGRRGLGRGLSALLGEVDAAPAQAPGEQLGGSREAPIEILQRNPDQPRRTFREEDLEDLSNSIREKGVLQPILVRPSPDTAGEYQIVAGERAWRAAQRAGLKTVPIMVRELDDLAVLEIGIIENVQRADLNVLEEALSYKVLMEKFERTQENIAQTIGKSXSHVANXMRLLXLPDEVQSYLVSGELTAXHARAIAAAADPVALAKQIIEGGLSVRETEALARKAPNLSAGKSKGGRPPRVKDTDTQALESDLSSVLGLDVSIDHRGSTGTLTITYATLEQLDDLCNRLTRGI
# Variants of: B1
# Test: one-hybrid fitness for binding parS DNA (scaled: cognate 1, non-cognate 0); higher = stronger binding
# Settings: with parS DNA site
# In short: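 Bacterial one-hybrid selection in E. coli USO rpoZ- hisB- pyrF- with a HIS3 reporter carrying the site 19 bp from the promoter, screening Caulobacter ParB libraries with four specificity codons randomised (NNS). Cells grew 48 hours at 37°C on M9-minus-histidine plus 0.1 mM IPTG and 5 mM 3-AT. Plasmids before and after selection were Illumina-sequenced, three replicate libraries pooled, and variants under 10 reads dropped. Fitness is the log change in variant-to-wild-type read ratio, rescaled to cognate 1, non-cognate 0.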
row,Variant,one-hybrid fitness for binding parS DNA
1,TINM,≤ 0.2
2,YKDV,≤ 0.2
3,YSIL,≤ 0.2
4,DEMT,≤ 0.2
5,PYDC,≤ 0.2
6,SGHW,≤ 0.2
7,SRAG,≤ 0.2
8,AKPL,≤ 0.2
9,KINL,≤ 0.2
10,LESF,≤ 0.2
11,VHYT,≤ 0.2
12,TVAA,≤ 0.2
13,SYRK,≤ 0.2
14,VTSL,≤ 0.2
15,LLCC,≤ 0.2
16,AFIS,≤ 0.2
17,DYLF,≤ 0.2
18,NYLA,≤ 0.2
19,GWPR,≤ 0.2
20,LSVF,≤ 0.2
21,DHLC,≤ 0.2
22,YDVG,≤ 0.2
23,TETN,≤ 0.2
24,KACM,≤ 0.2
25,GTYS,≤ 0.2
26,ILCT,≤ 0.2

row,Variant,one-hybrid fitness for binding parS DNA
1,RAQS,0.998
2,ADQG,≤ 0.2
3,KGRG,≤ 0.2
4,RVRP,≤ 0.2
5,LTTN,≤ 0.2
6,APMS,≤ 0.2
7,HVAN,≤ 0.2
8,IDNS,≤ 0.2
9,RIYD,≤ 0.2
10,YELC,≤ 0.2
11,NCSI,≤ 0.2
12,THRF,≤ 0.2
13,ATQD,≤ 0.2
14,RTTN,0.415
15,IGPI,≤ 0.2
16,KPCN,≤ 0.2
17,VGKA,≤ 0.2
18,QCGE,≤ 0.2
19,QGLI,≤ 0.2
20,HQSG,≤ 0.2
21,HCMG,≤ 0.2
22,QMNN,≤ 0.2
23,TAAT,≤ 0.2
24,TRLV,≤ 0.2
25,RVIG,0.904
26,EAFS,≤ 0.2

row,Variant,one-hybrid fitness for binding parS DNA
1,THVY,≤ 0.2
2,QHHK,≤ 0.2
3,SQHV,≤ 0.2
4,WRFS,≤ 0.2
5,AVTK,≤ 0.2
6,MACE,≤ 0.2
7,KLGV,≤ 0.2
8,QIRT,≤ 0.2
9,FFVR,≤ 0.2
10,SQML,≤ 0.2
11,HATA,≤ 0.2
12,VNSV,≤ 0.2
13,MTMC,≤ 0.2
14,NARG,≤ 0.2
15,VTRT,≤ 0.2
16,NIRR,≤ 0.2
17,NEVG,≤ 0.2
18,PCPV,≤ 0.2
19,TWPL,≤ 0.2
20,QHNS,≤ 0.2
21,SDKG,≤ 0.2
22,DTRG,≤ 0.2
23,HSGG,≤ 0.2
24,KFQR,≤ 0.2
25,RCML,0.201
26,LDKC,≤ 0.2

row,Variant,one-hybrid fitness for binding parS DNA
1,NDSV,≤ 0.2
2,QSMA,≤ 0.2
3,RPSI,≤ 0.2
4,PTHS,≤ 0.2
5,ASQG,≤ 0.2
6,WTAL,≤ 0.2
7,QNPD,≤ 0.2
8,RAEA,0.476
9,TLKE,≤ 0.2
10,RHML,≤ 0.2
11,WGRR,≤ 0.2
12,PNMT,≤ 0.2
13,CPRW,≤ 0.2
14,LTET,≤ 0.2
15,GYVG,≤ 0.2
16,NMGS,≤ 0.2
17,QTNE,≤ 0.2
18,MVRP,≤ 0.2
19,KNTP,≤ 0.2
20,VETE,≤ 0.2
21,KLFY,≤ 0.2
22,NARQ,≤ 0.2
23,VAQC,≤ 0.2
24,FPSR,≤ 0.2
25,QQAT,≤ 0.2
26,GDAW,≤ 0.2

row,Variant,one-hybrid fitness for binding parS DNA
1,QQGW,≤ 0.2
2,HWAR,≤ 0.2
3,DNHL,≤ 0.2
4,QIYM,≤ 0.2
5,RGHL,≤ 0.2
6,TVDH,≤ 0.2
7,TMEL,≤ 0.2
8,KRHL,≤ 0.2
9,REKL,≤ 0.2
10,PCYY,≤ 0.2
11,LYFI,≤ 0.2
12,SFMV,≤ 0.2
13,LAFT,≤ 0.2
14,NNRY,≤ 0.2
15,RGED,≤ 0.2
16,ARTL,≤ 0.2
17,ELET,≤ 0.2
18,RPVD,≤ 0.2
19,QRSV,≤ 0.2
20,PSTR,≤ 0.2
21,FYMR,≤ 0.2
22,FEGS,≤ 0.2
23,AHEV,≤ 0.2
24,LVTG,≤ 0.2
25,RLWG,0.995
26,QTSR,≤ 0.2

row,Variant,one-hybrid fitness for binding parS DNA
1,ANIL,≤ 0.2
2,RWCK,≤ 0.2
3,TPIN,≤ 0.2
4,QFQS,≤ 0.2
5,VYLG,≤ 0.2
6,CKQG,≤ 0.2
7,RFPD,≤ 0.2
8,CEMW,≤ 0.2
9,ESIR,≤ 0.2
10,YADS,≤ 0.2
11,ALET,≤ 0.2
12,QFRN,≤ 0.2
13,RCGP,≤ 0.2
14,TQGE,≤ 0.2
15,VPIL,≤ 0.2
16,KPDL,≤ 0.2
17,HAFV,≤ 0.2
18,TNFG,≤ 0.2
19,QINV,≤ 0.2
20,PDQF,≤ 0.2
21,GAYW,≤ 0.2
22,DNVT,≤ 0.2
23,HFQF,≤ 0.2

# From a collection of fitness landscapes (doi:10.1016/j.celrep.2020.107928)
